Experimental data reported in PubChem BioAssay AID1345082 (National Center for Advancing Translational Sciences (NCATS), 2018).
Out of some 94,000 compounds screened, about 4,000 (4.3%) were called active. Inconclusive means that the source gave no clear call. Such entries were picked first, then a sample of the others. Calls come from the whole dose curve; as a rule, active = well fitted inhibition curve with a large enough effect; inconclusive = small, poorly fitted or top-dose-only effect; inactive = no such curve, though single readings can be large or run the other way. Potencies of inconclusive entries are doubtful fits and often do not repeat.

Test: Cytotoxic Profiling in NIH 3T3 Cell Line of Diverse Libraries Using Quantitative High-Throughput Screening; note: nearly all actives have a fitted effect of over 55% in size
Conditions: NIH 3T3 viability, CellTiter-Glo ATP luminescence, 48-72 h; series mostly up to 96.7 µM
Outline: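 Cytotoxicity was measured by CellTiter-Glo ATP luminescence after 48 or 72 h compound exposure at 37 °C. Mouse NIH 3T3 fibroblasts were seeded at 400 cells/well and dosed by 23 nL pin transfer.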
Potency is the fitted concentration of half-maximal effect; tags give direction and shape of the fitted curve.

| Compound | Potency |
| --- | --- |
| CCOC(=O)c1cccc(NC(=O)C2=CC(C)(C)COc3ccc(OC)cc32)c1 | inconclusive: 31.6 µM [inhibitor, partial curve] |
| COc1cc(NC(=O)O[C@@H]2CC[C@]3(C)C(CC[C@@H](O)[C@H]3CC(=O)N3CCCCC3)[C@]2(C)CO)cc(OC)c1OC (stereo not given in full) | inconclusive: 56.2 µM [inhibitor, partial curve, poor fit] |
| COc1ccc(-n2c(=O)c3c(n2Cc2ccccc2)CN(CCCc2ccccc2)CC3)cc1 | inconclusive: 50.1 µM [inhibitor, partial curve, poor fit] |
| Cc1ccc(S(=O)(=O)NC[C@H]2OC[C@@H](NCc3ncc[nH]3)[C@@H]2O)cc1 | inactive |
| Cc1cccc(OCC(=O)c2ccc3c(c2)N(CC(=O)N(C)Cc2ccccc2)C(=O)CO3)c1 | inconclusive: 31.6 µM [inhibitor, full curve] |
| COCCNc1ncc(-c2ccc(O)c(OC)c2)c2c1OCC2 | inconclusive: 56.2 µM [inhibitor, partial curve, poor fit] |
| C[S+](=O)([O-])c1ccc(-c2nnc3ccc(C(=O)NCCc4ccc(Cl)cc4)cn23)cc1 | inconclusive: 35.5 µM [inhibitor, partial curve] |
| Nc1cccn2nc(-c3cccnc3)nc12 | inactive |
| O=C(C1CCN([S+](=O)([O-])c2cccc(C(F)(F)F)c2)CC1)N1CCC(N2Cc3cccn3C2=O)CC1 | inconclusive: 44.7 µM [inhibitor, partial curve, poor fit] |
| COC[C@@]12CN(c3ccccn3)C[C@@H]1C(C)(C)COc1ccc(OC)cc12 | inconclusive: 50.1 µM [inhibitor, partial curve, poor fit] |
| O=C(Nc1nccs1)[C@@H]1C[C@@H](c2ccc(F)cc2)N(Cc2ccccc2)C1 | inconclusive: 35.5 µM [inhibitor, full curve] |
| Clc1ccc(C2Cn3nnc(-c4noc(C5CC5)n4)c3CO2)cc1 (stereo not given) | inconclusive: 50.1 µM [inhibitor, single point] |
| COc1ccc(CN2Cc3cc(NC(=O)c4cccc(F)c4)ccc3OCC2=O)c(OC)c1 | inconclusive: 50.1 µM [inhibitor, partial curve, poor fit] |
| O=C1NCc2ccccc2CC12CCN(Cc1ccc(CO)o1)C2 (stereo not given) | inactive |
| CCOCCOC1CCN(S(=O)(=O)c2cn(C)cn2)CC1 | inactive |
| O=C(NCc1ccc(N2CCCC2)cc1)C1CCCN(c2cnn(Cc3ccccc3)c(=O)c2)C1 (stereo not given) | inconclusive: 35.5 µM [inhibitor, partial curve] |
| O=C(Cn1ccnc1)N1CCCCC1c1noc(COc2ccc(F)cc2)n1 (stereo not given) | inconclusive: 44.7 µM [inhibitor, partial curve, poor fit] |
| O=C(NC1CCCC1)N1CCCC1C(=O)N1CCCC1c1nc2ccncc2[nH]1 (stereo not given) | inactive |
| c1ccc(-c2cn3c(n2)CO[C@@H](CNCc2cccs2)C3)cc1 | inactive |
| Cc1ncsc1C(=O)N1CCCn2nc(C)c(-c3ccccc3-c3ccccc3)c21 | inactive |
| COC1CN(c2cccc(F)c2)C12CCN(C(=O)c1ccc3ccccc3n1)CC2 (stereo not given) | inconclusive: 50.1 µM [inhibitor, partial curve, poor fit] |
| Cc1nc(C2CC23CCN(S(=O)(=O)c2cccc(F)c2)CC3)no1 (stereo not given) | inactive |

| Compound | Potency |
| --- | --- |
| O=C(c1ccccc1F)N1CCN(c2nccc(Nc3ccccc3F)n2)CC1 | inconclusive: 50.1 µM [inhibitor, partial curve, poor fit] |
| O=C(COc1ccccc1)N1CCCCC1c1nc(CCOCC2CCOCC2)no1 (stereo not given) | inactive |
| CC(=O)N1CCC(NC(=O)c2nc(-c3ccccc3)cc3[nH]ccc23)CC1 | inconclusive: 22.4 µM [inhibitor, full curve, poor fit] |
| CCCOc1cc(C)c2c(c1C)C[C@H]([C@H](C)C(=O)NCCN1CCOCC1)CC2 | inconclusive: 39.8 µM [inhibitor, full curve] |
| O=C(c1ccc(-c2cncnc2)cc1)N1CCC(N[S+](=O)([O-])c2cccs2)CC1 | inactive |
| O=C(NCc1ccccc1)c1ccc2nnc(-c3cccc(C(F)(F)F)c3)n2c1 | inconclusive: 35.5 µM [inhibitor, partial curve] |
| Cc1ccc(Nc2ccnc(N3CCC(C(=O)Nc4ccccc4Cl)CC3)n2)cc1 | active: 39.8 µM |
| O=C1C(N2CCN(S(=O)(=O)c3ccc(Cl)s3)CC2)CCN1Cc1cccnc1 (stereo not given) | inconclusive: 50.1 µM [inhibitor, partial curve, poor fit] |
| O=C(c1ccc(Cl)cc1)N1CC2(CCCN2Cc2ccc(C(F)(F)F)cc2)Cc2ccccc21 (stereo not given) | inconclusive: 28.2 µM [inhibitor, partial curve] |
| CNC(=O)c1cccc(-c2cnc(Nc3ccc(F)c(Cl)c3)c3c2CCO3)c1 | inconclusive: 17.8 µM [inhibitor, full curve, poor fit] |
| Cc1ccccc1CNC(=O)c1nn(CC2CC2)c2c1CNCC2 | inconclusive: 44.7 µM [inhibitor, partial curve, poor fit] |
| Cc1ncsc1CN1CCC2(CC1)CC(Cc1nc(-c3ccccc3)no1)CCO2 (stereo not given) | inconclusive: 28.2 µM [inhibitor, partial curve, poor fit] |
| Cc1nc(C)n(CCCNc2nccc(-c3ccccn3)n2)n1 | inactive |
| COc1cccc(N2CCN(C(=O)C3CCCN(c4cnc5nccnc5c4)C3)CC2)c1 (stereo not given) | inconclusive: 44.7 µM [inhibitor, partial curve, poor fit] |
| COC(=O)[C@@H]1Cc2ncn(C(C)C)c2CN1S(=O)(=O)c1cccc2cccnc12 | inconclusive: 126 µM [inhibitor, single point] |
| Cc1cnc(CN(C)C(=O)CC(c2ccccc2)c2ccc3c(c2)OCO3)[nH]1 (stereo not given) | inactive |
| CC(=O)N1CC2(CCN(Cc3ccc(Cl)cc3)CC2)Cc2ccccc21 | inconclusive: 50.1 µM [inhibitor, partial curve, poor fit] |
| CCN(CC)Cc1cnc2c(C(=O)NC(C)CO)cnn2c1 (stereo not given) | inactive |
| O=C1c2cnc(-c3ccc(Oc4ccccc4)cc3)nc2OCCN1CC1CC1 | active: 28.2 µM |
| CN1CCCCCC(O)c2cc(C(=O)NCC3CC3)ccc21 (stereo not given) | inactive |
| O=C(NC1CCCC1)N1CC(Oc2ccccc2-c2nc(-c3ccccc3)no2)C1 | active: 31.6 µM |
| COCCn1ccc2cc(C(=O)Nc3ccc4c(c3)C(=O)N3CCC[C@H]3C(=O)N4)ccc21 | inconclusive: 79.4 µM [inhibitor, single point] |

| Compound | Potency |
| --- | --- |
| O=C1NCCC[C@@H]1NC(=O)[C@H]1CN(C(=O)c2cccs2)CCN1C(=O)c1cccs1 | inactive |
| C[C@@H]1C(=O)O[C@H]2[C@H]1CC[C@@]1(C)Cc3sc(NS(=O)(=O)Cc4ccccc4)nc3[C@@H](C)[C@H]21 | inconclusive: 6.31 µM [inhibitor, full curve, poor fit] |
| Cc1nc(CCNC(=O)C2CC2)no1 | inactive |
| CCC1=C(C(=O)OC)C(c2ccc(C)cc2C)N2C(CC(=O)Nc3ccc(OC)cc3)=CSC2=N1 (stereo not given) | inconclusive: 50.1 µM [inhibitor, partial curve, poor fit] |
| O=[S+]1([O-])NCC2(CCN(CC3CCCCC3)CC2)Nc2ccccc21 | inconclusive: 25.1 µM [inhibitor, partial curve] |
| Cc1nn(C)c2nc(-c3ccccn3)nc(NCC(c3ccco3)N(C)C)c12 (stereo not given) | inconclusive: 50.1 µM [inhibitor, partial curve, poor fit] |
| Cc1ccc(CNC(=O)N2C[C@@H](Oc3cccnc3)C[C@H]2C(=O)N2CCOCC2)cc1 | inactive |
| Cc1ccc(NC(=O)N2CCCC(Cn3cnc4cccnc43)C2)c(Cl)c1 (stereo not given) | inconclusive: 44.7 µM [inhibitor, partial curve, poor fit] |
| COc1cccc(Nc2ccc3c(n2)C(C)(C(=O)NC2CCC2)CN(C)C3)c1 (stereo not given) | inconclusive: 56.2 µM [inhibitor, partial curve, poor fit] |
| CCCN1CCC2(CCN([S+](=O)([O-])c3ccccc3)CC2)Oc2ccccc21 | inconclusive: 22.4 µM [inhibitor, full curve] |
| COC(=O)c1nc(NC(=O)Cn2nc3c(cc2=O)CCCCC3)sc1C(C)C | inconclusive: 50.1 µM [inhibitor, partial curve, poor fit] |
| O=C(Cc1ccccc1F)Nc1ccc2c(c1)CN(C(=O)[C@H]1CCCN1)CC2 | inactive |
| COc1ccc(CN2Cc3cc(NC(=O)c4ccc5c(c4)OCO5)ccc3OC(C)C2=O)cc1 (stereo not given) | inconclusive: 35.5 µM [inhibitor, partial curve] |
| O=C(NC1CCCN(c2cc(-c3ccc(F)cc3)[nH]n2)C1)c1cccc(F)c1 (stereo not given) | inconclusive: 44.7 µM [inhibitor, partial curve, poor fit] |
| O=C(COc1ccc(Cl)cc1Cl)N1CCC(N2CCOC2=O)CC1 | inactive |
| COc1nc2c(cc1CNC(=O)CC1CC1)C(=O)N(C1CCCC1)C2 | inactive |
| Cc1nc2c(c(-c3ccc(O)cc3)n1)CN(Cc1cccn1C)CCC2 | inconclusive: 44.7 µM [inhibitor, partial curve, poor fit] |
| CC1=C[C@@H](CNC(=O)CC(C)(C)CC(=O)O)[C@H](C(C)C)C[C@H]1Cc1nc2ncccc2[nH]1 | inactive |
| O=C1[C@@H]2C[C@@H](CN2Cc2ccc(Cl)cc2)Oc2ccccc2N1Cc1ccccc1 | active: 31.6 µM |
| Cn1cc(CN2CCNc3cnc(-c4ccccc4)cc3C2)cn1 | active: 31.6 µM |
| O=C(O)CCn1ncc2cc(OCC3CCN(C(=O)Oc4ccccc4Cl)CC3)ccc21 | active: 17.8 µM |
